The structures appear in SMILES notation. Screen size: about 150,000 compounds; about 540 (0.36%) showed an effect of 50% or more. The list shows a part of the results.

For the assay, the system named is Plasmodium falciparum. Nature of the assay: Primary screen in NF54 nanoGlo assay, in single point, at 2uM, 72h; a lower Z score goes with more inhibition. It is filed as functional, Erythrocyte. As to conditions: timepoint 72 hour.
One may read the % Inhibition as the change of the read-out against control, counted positive when it falls. As for `C[C@H]1CCc2c(cnc3c(C(=O)NCc4cccc(F)c4)cnn23)C1`, the “% Inhibition” value is recorded as -3% and the Z score is reported as 0.43.

Turning to `O=C(NCC1CCOCC1)c1ccc(-c2cc3ccccc3[nH]c2=O)cc1`, the “% Inhibition” value is on record as -21% and the Z score was found to be 2.34.

Consider `CCn1c(C(O)(c2ccccc2)c2nc3ccccc3n2CC)nc2ccccc21`, for which the “% Inhibition” value is on record as 9% and the Z score is reported as -1.02.

Consider `CC(NC(=O)C1CCN(c2ccc(Br)cc2F)C1=O)c1ccccc1` (centres undefined), for which the “% Inhibition” value is -9% and the Z score was determined as 0.83.

For the compound `Cc1n[nH]c([C@@H]2CN(Cc3cc(F)ccc3Cl)CCO2)n1`, the “% Inhibition” value is listed as -10% and the Z score is 1.26.

As for `CNC(=O)[C@H]1CN(C(=O)Cc2cccc(C)c2)C[C@@H]1NC(C)=O`, the “% Inhibition” value was found to be 4% and the Z score is -0.49.

For `CCc1cc(C2CC2)nc(NS(=O)(=O)c2cncc(F)c2)n1`, the “% Inhibition” value was -10% and the Z score is recorded as 1.87.

As for `C=CCn1c(=O)sc2cc(NC(=O)C(C)(C)C)ccc21`, the “% Inhibition” value was found to be 4% and the Z score is -0.5.

For `C[C@H](NCc1ncnn1CC(F)F)c1cccc(C2CC2)c1`, the “% Inhibition” value is recorded as -9% and the Z score turned out to be 1.77.

`COC(CNS(=O)(=O)c1ccc(NC(C)=O)cc1)OC`: the “% Inhibition” value came out at 6% and the Z score is on record as -0.83.

For `Cc1ccc(NC(=O)CCNc2cnc3cnccn23)cc1Cl`, the “% Inhibition” value is recorded as -13% and the Z score was 1.86.

Regarding `O[C@H](COc1cccc2[nH]ccc12)Cn1cnc2cc(F)c(F)cc21`, the “% Inhibition” value is recorded as 9% and the Z score is -1.09.

In the case of `Cc1ccc(CN=C(N(C)C)N(C)C)s1`, the “% Inhibition” value was determined as 3% and the Z score is -0.36.

Regarding `CN(Cc1nccn1C)C(=O)C(=O)Nc1cc(F)ccc1F`, the “% Inhibition” value is recorded as 1% and the Z score is reported as -0.07.

In the case of `Cc1c(C2=CCN(S(=O)(=O)c3ccc(CC(C)C)cc3)CC2)c2ccccc2n1Cc1cccc(F)c1`, the “% Inhibition” value is reported as -8% and the Z score worked out at 1.03.

As to `C[C@@H](C1CC1)N(C)C(=O)c1cccn(Cc2ccc(F)cc2F)c1=O`, the “% Inhibition” value stood at 5% and the Z score was -0.92.

On to `CCn1ncc(-c2cc(C(F)(F)F)nc(NC3CCCC3)n2)c1C`, for which the “% Inhibition” value is recorded as -28% and the Z score is on record as 3.32.

On to `COc1ccccc1CN1C(=O)[C@H](CC(=O)N2CCc3ccccc3C2)N=C1O`, for which the “% Inhibition” value was -5% and the Z score amounted to 0.69.

Turning to `CCCc1cnc(C)nc1NC[C@H]1CC[C@H](C(=O)NC)CC1`, the “% Inhibition” value is listed as 2% and the Z score is listed as -0.26.

For `Cc1ccc(N2CCOC2=O)c(-c2ccncc2)c1`, the “% Inhibition” value is reported as -9% and the Z score came to 1.5.

As to `Cc1cc(C(=O)N2CC[C@H](N(C)C)C2)sc1-c1cccc(Cl)c1`, the “% Inhibition” value was -1% and the Z score stood at 0.11.

As to `CCC1(CC)C(NC(=O)N2CCS(=O)(=O)C(C)C2C)C(C)C1OC` (centres undefined), the “% Inhibition” value is -1% and the Z score is reported as 0.12.

On to `COC[C@H]1COCCN1C(=O)c1ncc2c(F)cccn12`, for which the “% Inhibition” value is listed as -10% and the Z score turned out to be 1.23.

Consider `CCCn1nnnc1CNc1cccc2c1OCCO2`, for which the “% Inhibition” value is reported as -6% and the Z score is 0.79.

Turning to `CN(C)c1ccc(CCC(=O)N2CCC[C@](C)(C#N)C2)cc1`, the “% Inhibition” value is listed as -13% and the Z score amounted to 1.51.

As to `Cc1cc(C)nc(-n2cc(C(=O)N3CCC[C@H](CCC(=O)O)C3)c(C(C)C)n2)n1`, the “% Inhibition” value stood at 1% and the Z score is -0.16.

For the compound `O=S(=O)(c1cccc(Cl)c1)N1CC[C@H](CN2CCOCC2)C1`, the “% Inhibition” value is given as -13% and the Z score worked out at 2.6.

For `N#Cc1c(CN2C(=O)NC3(CCCCCCC3)C2=O)cn2ccccc12`, the “% Inhibition” value is listed as -10% and the Z score was found to be 1.42.

Take `Cc1nn(C)c(C)c1CCN/C(=N\c1ccc(F)cc1)NC(=O)c1ccc(F)c(F)c1`: the “% Inhibition” value is reported as -6% and the Z score was 1.14.

Take `CCCCc1nc(C)c(C#N)c2cc(OC)c(OC)cc12`: the “% Inhibition” value is listed as -3% and the Z score is on record as 0.43.

As for `Cc1ccc(CCNC(=O)N(C)C[C@H](C)c2nccs2)cn1`, the “% Inhibition” value is recorded as -5% and the Z score is listed as 0.4.

For the compound `Cc1cc(NC(=O)c2c(F)cccc2F)sn1`, the “% Inhibition” value is recorded as -17% and the Z score is 2.85.

As for `O=C(C1CC(=O)N(c2cn[nH]c2)C1)N1CCC(Cc2ccc(F)cc2)C1` (centres undefined), the “% Inhibition” value is recorded as -6% and the Z score stood at 0.71.

As to `O[C@H]1CCc2cnn(Cc3nc(C(F)(F)F)cs3)c2C1`, the “% Inhibition” value is reported as -7% and the Z score amounted to 0.84.

For `CCOc1ccc(CN2CCc3nc(N4CCC(C)CC4)ncc3C2)cc1`, the “% Inhibition” value is -12% and the Z score is reported as 1.68.

Regarding `CC(NC(Cc1ccccc1)C(=O)N1CCCCC1)c1cnccn1` (centres undefined), the “% Inhibition” value came out at 9% and the Z score was -0.79.

With `Cc1cc(S(=O)(=O)NC(=O)c2cnn(C(C)C)c2C)c(C)s1`, the “% Inhibition” value is -13% and the Z score was 1.22.

In the case of `O=C(NCCc1ccc(Cl)s1)Nc1cn[nH]c1`, the “% Inhibition” value was -12% and the Z score was determined as 2.34.

As for `Cc1cc(C)n(CCN(C)C(=O)c2cccc3c2NCCC3)n1`, the “% Inhibition” value is given as -9% and the Z score is reported as 1.74.

Take `C[C@@H](CC(=O)N1CCC(C#N)CC1)C1CC1`: the “% Inhibition” value is recorded as -13% and the Z score stood at 1.17.

Take `CCCn1cnnc1CNCc1nc(C)c(C)n1C`: the “% Inhibition” value is -1% and the Z score is on record as 0.14.

On to `C[C@@H](CN(C)CCO)NCc1ccc(C#N)cc1`, for which the “% Inhibition” value is given as -4% and the Z score came out at 0.5.
